Results published in US8809377B2, “Deubiquitinase inhibitors and methods for use of the same” (The Regents of the University of Michigan, priority 2010, dated 2014).

Columns and labels:
[1] = system: USP9X; test: Western / HA-UbVS labeling of USP9X in intact cells or lysates; type: cell-based; details: RAW264.7 cells, 5 μM, 2 hours
[2] = system: methicillin-resistant Staphylococcus aureus (MRSA); test: MRSA survival within macrophages; type: cell-based; details: RAW264.7 macrophages, 8 hr infection

SMILES: CCC[C@H](NC(=O)/C(C#N)=C/c1cccc(Br)n1)c1ccccc1 [WP1130]
- Usp9x DUB activity (HA-UbVS) [1]: Usp9x inhibition
- decrease in survival of MRSA within macrophages [2]: 3-4 fold
